# Measured values reported in ChEMBL document CHEMBL4888484, “Replenishing the malaria drug discovery pipeline: Screening and hit evaluation of the MMV Hit Generation Library 1 (HGL1) against asexual blood stage Plasmodium falciparum ,using a nano luciferase reporter read-out” (2022).
# Screen size: about 150,000 compounds; about 540 (0.36%) showed an effect of 50% or more. Some of the results follow.
# Test system: Plasmodium falciparum
# Assay: Primary screen in NF54 nanoGlo assay, in single point, at 2uM, 72h; a lower Z score goes with more inhibition
# Assay type: functional, Erythrocyte
# Conditions: timepoint 72 hour
SMILES,% Inhibition [%],Z score
CC(C)(C)OC(=O)N1CCCNc2ccccc21,1,-0.28
CCn1nc(C)c(Nc2nc(C)nc3c2cnn3C(C)(C)C)c1C,-8,1.34
COCCN(CC1CN(Cc2ccc(C)cc2)CC1c1ccc(F)cc1)C(=O)C(C)C (stereo not drawn),-12,1.38
O=C(OC1CCCC1)N1CCN(C2CC2)C[C@@H]1Cc1ccccc1,-8,1.18
CNC(=O)CCc1ccc(Br)c(C)c1,-6,0.65
Cc1cc(Cl)ccc1NC(=O)N[C@H]1C[C@H]2C(=O)N3CCC[C@@H]3C(=O)N2C1,-19,2.26
C[C@@H](CCc1ccccc1)NC(=O)c1ccc2c(c1)OCO2,7,-0.99
Cn1ncc2cc(NC(=O)N3CCC4(CC3)c3ccccc3C[C@@H]4O)ccc21,-10,1.39
C=CCN(C(=O)NCCN1CCOCC1)C1CC1,-3,0.3
COc1cc2c(cc1OC)CN(C(=O)[C@@H]1Cc3ccccc3O1)CC2,-7,0.91
Cc1cnc(C)c(N2CCC[C@]3(CCC(=O)N(C(C)C)C3)C2)n1,-5,0.61
CC(=O)c1ccccc1NC(=O)C(C)N1CCCC(N2CCCC2)C1 (stereo not drawn),-8,1.57
Cc1ccc2c(c1)CCCN2C(=O)c1cc(F)c[nH]1,-7,1.23
CN(C)c1ccnc(CNC(=O)c2cnccn2)n1,-2,0.26
CC(C)(C)c1nc(C(=O)N2CCNC[C@H]2C(F)F)co1,-5,0.58
C[C@](O)(CN1CCC(Oc2cncc(Cl)c2)CC1)C(F)(F)F,-4,0.58
O=C1COc2ccc(S(=O)(=O)Nc3ccc4c(c3)CCC4)cc2N1,2,-0.23
CCn1ncnc1[C@H](C)NC(=O)Cc1cc(F)ccc1C,5,-0.57
Cc1ccc(-n2ncc3c(=O)n(CC(=O)N4CCC(C)CC4)cnc32)c(C)c1,-5,0.75
CCn1nccc1C(=O)N1CC[C@H](Nc2ncnc3c2CCC3)C1,-2,0.34
COc1ccc(-n2c(C)cc(C(=O)N3CCC[C@H](c4nnc5ccccn45)C3)c2C)cc1,-4,0.5
NCc1nc(C(=O)Nc2ccc(N3CCCC3)c3ncccc23)co1,6,-0.9
O=C(Nc1ccccc1)OC1CCCC(NC(=O)c2ccc(Cl)s2)C1 (stereo not drawn),-7,0.77
O=C(c1ccc2c3c(cccc13)CC2)N1CCc2ccccc2C1,-4,0.79
